Reference: PubChem BioAssay AID504832 (National Center for Advancing Translational Sciences (NCATS), 2011)
Out of some 310,000 compounds screened, about 18,000 (5.8%) were called active. This list was built around the results that the source calls inconclusive (neither active nor inactive); the mix of calls is not that of the screen. Calls follow the shape of the dose curve; as a rule, active = well fitted inhibition curve with a large enough effect; inconclusive = small, poorly fitted or top-dose-only effect, or another doubt; inactive = no such curve, though single readings can be large or run the other way. Potencies of inconclusive entries are left out as doubtful fits.

Assay: Primary qHTS for delayed death inhibitors of the malarial parasite plastid, 48 hour incubation
Settings: P. falciparum luciferase growth in erythrocytes; series mostly up to 28.7 µM; activity change, negative = inhibition: at the top concentration
Summary of the method: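 Growth was read as firefly luciferase luminescence after a 48 h, 37 C, 5% CO2 exposure of compounds to reporter-bearing P. falciparum cultures (0.1% parasitemia, 2% hematocrit final) in Albumax-supplemented RPMI 1640.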
% is scaled to controls: 0 for no effect and ±100 for the full control effect; potency is read from the fitted curve at half-maximal effect; tags tell the direction and shape of the fitted curve.

| SMILES | Potency | activity change, negative = inhibition |
| --- | --- | --- |
| CC(C)N1C(=O)S/C(=C/c2cccnc2)C1=O | inconclusive [inhibitor, partial curve] |  |
| C=CCSc1n[nH]c(-c2ccc(OCCCC)cc2)n1 | inconclusive [inhibitor, single point] |  |
| COc1ccc(Cc2n[nH]c(=S)n2NC(=O)Nc2ccc(Cl)c(Cl)c2)cc1 | inconclusive [inhibitor, single point] |  |
| O=C(O)c1ccc(N/N=C/c2cn(-c3ccccc3)nc2-c2cccs2)cc1 | active: 0.828 µM |  |
| CCOC(=O)[C@@H]1[C@H]2COc3ccc(Br)cc3[C@@H]2N2C(=O)N(c3ccc(Br)cc3)C(=O)[C@]12C | inconclusive [inhibitor, full curve, poor fit] |  |
| O=C(NC1=NCCS1)c1ccc([N+](=O)[O-])cc1Cl |  | inactive: 46.4% |
| COC(=O)CN1C(c2ccccc2)=Nc2ccc(Cl)cc2C1c1ccccc1 (stereo not given) | inconclusive [inhibitor, single point] |  |
| COc1cc(NC(=O)Cc2nn(C)c(=O)c3ccccc23)cc(OC)c1 | inconclusive [inhibitor, partial curve, poor fit] |  |
| COCCn1c(C)cc(C(=O)CSc2nnc(C3CC3)n2C2CC2)c1C |  | inactive: -10.4% |
| COc1ccc2cc3cc(C(=O)NCC4CCCO4)oc3nc2c1 (stereo not given) | inconclusive [inhibitor, full curve] |  |
| CCCOc1ncnc2c1[nH]c1ccccc12 |  | inactive: 67.9% |
| Cc1cc(-c2cc(-c3ccccc3)on2)nc(NC2CCCC2)n1 | inconclusive [inhibitor, single point] |  |
| CCN(CC)S(=O)(=O)c1ccc(C(=O)NCCCN=C2NS(=O)(=O)c3ccccc32)cc1 | inconclusive [inhibitor, partial curve, poor fit] |  |
| CCC(C)n1c(SCc2ccccc2)nc2ccsc2c1=O (stereo not given) | inconclusive [inhibitor, single point] |  |
| Cc1cc(C)nc(N2CCC(C(=O)NCCc3ccc(Cl)cc3)CC2)n1 | inconclusive [inhibitor, single point] |  |
| COc1cccc(N(C(=O)c2cnccn2)C(C(=O)NC2CCCCC2)c2ccc(Cl)cc2)c1 (stereo not given) | inconclusive [inhibitor, single point] |  |
| O=C(/C=C/c1ccco1)NC(=S)Nc1ccc(O)c(-c2nc3ccccc3s2)c1 | inconclusive [inhibitor, single point] |  |
| O=C(Nc1ccc(F)cc1)C1C2CCC3C(CCC21)C3(Cl)Cl (stereo not given) | inconclusive [inhibitor, partial curve, poor fit] |  |
| COc1ccc(-c2csc(-c3ccc(O)cc3)n2)cc1 |  | inactive: 69.4% |
| CC(=O)Nc1ccc(NC(=O)Nc2ccc(C)c(C)c2)cc1 |  | inactive: 16.7% |
| Cc1ccc(C2N(C)C(=O)c3ccccc3N2C)cc1 (stereo not given) |  | inactive: -1.6% |
| Cc1ccc(OCC(=O)Nc2ccccc2N2CCOCC2)c(C)c1 | inconclusive [inhibitor, partial curve, poor fit] |  |
| O=C(c1ccccc1)c1c2c(cc3sc4ccccc4[n+]13)-c1cccc3cccc-2c13 | active: 0.928 µM |  |
| COc1cccc(C(C2C(=O)CC(C)(C)CC2=O)C2C(=O)CC(C)(C)CC2=O)c1 |  | inactive: 11.9% |

| SMILES | Potency | activity change, negative = inhibition |
| --- | --- | --- |
| Oc1ccccc1CNCC12CC3CC(CC(C3)C1)C2 | active: 0.104 µM |  |
| Cc1cc(Cl)cc(C)c1OCCOCCNCc1ccccc1 | inconclusive [inhibitor, single point] |  |
| CC1CS(=O)(=O)CCN1N=Cc1ccc([N+](=O)[O-])o1 (stereo not given) | inconclusive [inhibitor, partial curve, poor fit] |  |
| COc1cccc(CN2CCC(n3nccc3NC(=O)CCCc3ccccc3)CC2)c1O | inconclusive [inhibitor, partial curve, poor fit] |  |
| O=C(NC(C(=O)c1ccccc1)N1CCCCCC1)c1ccco1 (stereo not given) |  | inactive: 6.39% |
| COc1ccccc1N1CCN(C(=O)CCS(=O)(=O)c2ccc3c(c2)oc(=O)n3C)CC1 | inconclusive [inhibitor, single point] |  |
| Cc1nc2ccccn2c1C(=O)OCC#N |  | inactive: 6.11% |
| CC(C)(C)C(=O)/C=C/Nc1ccccc1O | inconclusive [inhibitor, single point] |  |
| CCOC(=O)C1CCCN(Cc2ccc(OC)cc2OC)C1 (stereo not given) | inconclusive [inhibitor, partial curve, poor fit] |  |
| CCn1c(SCc2ccc(C#N)cc2)nnc1-c1ccc(S(=O)(=O)N2CCCCC2)cc1 | active: 1.47 µM |  |
| CN(C)C(=O)CS(=O)(=O)c1ccc(Cl)cc1 | inconclusive [inhibitor, partial curve, poor fit] |  |
| Cc1ccc(N(C(=O)Cn2nnc(-c3ccccc3F)n2)C(C(=O)NC2CCCC2)c2ccncc2)cc1 (stereo not given) | inconclusive [inhibitor, full curve] |  |
| CC(OC(=O)CC1CC2CCC1C2)C(=O)Nc1cccc(S(=O)(=O)N2CCOCC2)c1 (stereo not given) | inconclusive [inhibitor, partial curve] |  |
| COc1ccc2[nH]c(=O)c(CN(C(=O)c3cccnc3)c3ccc(C)c(C)c3)cc2c1 | inconclusive [inhibitor, single point] |  |
| ClCCN1CCN(c2ccnc3cc(Cl)ccc23)CC1 | active: 0.828 µM |  |
| Cc1ccc2oc(=O)c3cc(C(=O)NCCCN4CCCCCC4)sc3c2c1 | inconclusive [inhibitor, single point] |  |
| CCC(=O)N1CCc2cc(Br)cc(S(=O)(=O)N3CCCCCC3)c21 | active: 2.94 µM |  |
| CC(C)Cn1cnc2c1c(=O)n(CC(=O)Nc1ccc3c(c1)OCO3)c(=O)n2Cc1ccccc1 | active: 9.28 µM |  |
| O=C(CCNS(=O)(=O)c1ccc(OC(F)(F)F)cc1)N1CCCC1 | inconclusive [inhibitor, single point] |  |
| CCOC(=O)C1CCCN(C(=O)c2cccc(S(=O)(=O)N(C)c3ccc(OC)cc3)c2)C1 (stereo not given) | inconclusive [inhibitor, partial curve, poor fit] |  |
| COC(=O)c1ccc(Nc2cc(C)nc3ncnn23)cc1 |  | inactive: -27.1% |
| O=C(COC(=O)c1cccc(NS(=O)(=O)c2ccc(F)c(F)c2)c1)NC(=O)NC1CCCC1 |  | inactive: 17.9% |
| COc1ccccc1NC(=O)CC(c1ccc(F)cc1)c1ccco1 (stereo not given) | inconclusive [inhibitor, partial curve, poor fit] |  |
| CC(NC(=O)c1csc2ccccc12)C1CCCO1 (stereo not given) |  | inactive: 38.2% |

| SMILES | Potency | activity change, negative = inhibition |
| --- | --- | --- |
| O=C(c1cnc(N2CCN(c3ncccn3)CC2)c2ccccc12)N1CCN(c2ccccn2)CC1 | inconclusive [inhibitor, partial curve] |  |
| COCCCNc1nc(N)c([N+](=O)[O-])c(NCc2ccccc2)n1 | inconclusive [inhibitor, partial curve, poor fit] |  |
| CC(=O)c1c(C)[nH]c(C(=O)OCC(=O)Nc2ccc(Cl)c(S(=O)(=O)N(C)C)c2)c1C | active: 1.17 µM |  |
| Cc1ccc(CNC(=O)C2CCC(=O)N(CCc3ccccc3)C2)s1 (stereo not given) | inconclusive [inhibitor, single point] |  |
| CCC1SC2=NC(C)=C(C(=O)OC)C(c3ccc(C(=O)OC)cc3)N2C1=O (stereo not given) | inconclusive [inhibitor, single point] |  |
| CC1CC(C)CN(C(=O)C2CC(=O)N(c3ccc4c(c3)OCCO4)C2)C1 (stereo not given) | inconclusive [inhibitor, single point] |  |
| Cc1cc(C)nc(Sc2nc(Cl)nc(N(c3ccccc3)c3ccccc3)n2)n1 | inconclusive [inhibitor, single point] |  |
| CCOC(=O)c1cc([N+](=O)[O-])c([N+](=O)[O-])cc1NC(C)=O |  | inactive: -0.274% |
| COC(=O)C1=CN(Cc2ccc(C)cc2)C=C(C(=O)OC)C1c1ccc(F)c(F)c1 | active: 6.57 µM |  |
| COCC(C)NC(=S)Nc1ccccc1[N+](=O)[O-] (stereo not given) |  | inactive: 30.8% |
| COc1ccc2[nH]c(=O)c(C(c3nnnn3C(C)(C)C)N(Cc3ccco3)CC3CCCO3)cc2c1 (stereo not given) | active: 9.28 µM |  |
| Cc1cc(C)cc(NC(=S)NCC2CCCO2)c1 (stereo not given) |  | inactive: 0.159% |
| Cc1ccc2nc3sc(C(=O)N4CCCc5ccccc54)c(N)c3cc2c1 | inconclusive [inhibitor, partial curve, poor fit] |  |
| O=C(CC1Nc2ccccc2NC1=O)NC1CCCCC1 (stereo not given) | inconclusive [inhibitor, single point] |  |
| CCOC(=O)c1cncc(C#CCOC(=O)Nc2ccc(OC(F)(F)F)cc2)c1 | inconclusive [inhibitor, partial curve, poor fit] |  |
| CCCCn1c(N)c(N(CC(C)C)C(=O)c2ccc3c(c2)NC(=O)C(C)S3)c(=O)[nH]c1=O (stereo not given) |  | inactive: 58.4% |
| CCOC(=O)N1CCc2c(sc3c2c(=O)n(Cc2ccccc2)c(=O)n3CC(=O)NCCOC)C1 | inconclusive [inhibitor, full curve] |  |
| O=C(O)c1[nH]c2ccccc2c1CC(=O)N1CCOCC1 |  | inactive: 42.4% |
| NC(=O)NC(=O)COC(=O)c1cccnc1Nc1ccccc1F |  | inactive: 36.6% |
| COc1cc(C(=O)Nc2ccc3ccccc3c2)cc(OC)c1OC | active: 5.22 µM |  |
| COc1ccc2cc3c(N)nn(C(=O)c4ccccc4Cl)c3nc2c1 | active: 8.28 µM |  |
| CC(=O)O[C@]1(C(C)=O)CC[C@H]2[C@@H]3C=C(Cl)C4=CC(=O)CC[C@]4(C)[C@H]3CC[C@@]21C | active: 11.7 µM |  |
